{
  "source": "PubChem BioAssay AID488969",
  "about": "(Vanderbilt High Throughput Screening Facility, 2010)",
  "note": "The full ranking holds about 110,000 compounds; the median of “z-score” is about -0.1, and the highest 2% start at about 2. This is one part of the list.",
  "data": [
    {"molecular_target": "Metabotropic glutamate receptor 8 (Rattus norvegicus) (UniProt P70579)", "sequence (P70579 whole entry, looked up)": "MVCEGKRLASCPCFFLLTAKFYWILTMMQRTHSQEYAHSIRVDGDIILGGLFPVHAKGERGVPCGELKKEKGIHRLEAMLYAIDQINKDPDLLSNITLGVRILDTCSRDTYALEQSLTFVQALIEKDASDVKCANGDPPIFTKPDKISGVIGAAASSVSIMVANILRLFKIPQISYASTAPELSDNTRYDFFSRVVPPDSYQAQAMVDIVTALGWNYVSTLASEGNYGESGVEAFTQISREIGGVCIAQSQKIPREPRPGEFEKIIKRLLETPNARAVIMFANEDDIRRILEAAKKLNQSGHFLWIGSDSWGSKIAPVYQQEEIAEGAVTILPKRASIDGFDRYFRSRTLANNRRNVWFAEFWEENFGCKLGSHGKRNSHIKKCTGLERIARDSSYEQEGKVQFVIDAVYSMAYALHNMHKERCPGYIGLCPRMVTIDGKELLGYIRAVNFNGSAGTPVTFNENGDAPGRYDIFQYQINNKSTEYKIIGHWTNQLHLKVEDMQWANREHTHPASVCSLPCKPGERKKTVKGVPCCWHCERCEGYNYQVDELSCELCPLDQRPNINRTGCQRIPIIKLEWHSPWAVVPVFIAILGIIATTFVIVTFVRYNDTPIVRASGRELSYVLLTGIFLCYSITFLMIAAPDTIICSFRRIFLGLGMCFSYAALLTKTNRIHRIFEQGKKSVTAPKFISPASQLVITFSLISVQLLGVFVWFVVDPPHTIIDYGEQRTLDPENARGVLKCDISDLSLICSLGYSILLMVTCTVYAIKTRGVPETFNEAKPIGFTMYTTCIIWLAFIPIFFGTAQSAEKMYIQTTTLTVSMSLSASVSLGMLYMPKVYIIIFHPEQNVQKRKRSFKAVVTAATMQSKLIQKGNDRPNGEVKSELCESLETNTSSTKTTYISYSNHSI", "assay": "rat mGluR8 modulators via GIRK flux, primary screen, cell-based, thallium flux, HTS (AID 488969)", "conditions": "HEK293 rat mGluR8, GIRK (G protein-gated inwardly rectifying potassium channel) thallium flux, FluoZin2; at 10 µM; stronger effect = higher value; submaximal glutamate (EC20) added with thallium", "values": [
      {"compound": "Cc1cccc(C)c1OCC(=O)N1CC2(C)CC1CC(C)(C)C2", "note": "(stereo unspecified)", "z-score": 0.014},
      {"compound": "O=C1N/C(=C/c2cccn2-c2ccc(F)cc2)C(=O)N1Cc1ccccc1", "z-score": -0.137},
      {"compound": "CN(C)c1ccc(NC(=O)CSc2nc3ccccc3c(=O)n2C2CCCCC2)cc1", "z-score": 1.39},
      {"compound": "CCN1CCCC1CNC(=O)c1cc2c(=O)n(C)c3ccccc3c2n1C", "note": "(stereo unspecified)", "z-score": -0.0866},
      {"compound": "Cc1cc(C(F)(F)F)nc(NCc2cccnc2)n1", "z-score": 0.165},
      {"compound": "COc1ccc(CC(=O)Nc2ccc3c(c2)CCC3)cc1", "z-score": 0.0703},
      {"compound": "C/C(=N\\NC(=O)C(C)Sc1ccccc1)C(C)(C)C", "note": "(stereo unspecified)", "z-score": "1.72e-05"},
      {"compound": "Cc1cc(C)c(S(=O)(=O)c2ccccc2)c(N(C)C)n1", "z-score": -0.174},
      {"compound": "COc1cccc(C(=O)CN2CCN(S(=O)(=O)c3ccc(Br)cc3)CC2)c1", "z-score": -0.472},
      {"compound": "Cc1c([N+](=O)[O-])c(C(=O)N2CCCC2)nn1C", "z-score": -0.139},
      {"compound": "Cn1c(C(=O)O)cc2cc(F)ccc21", "z-score": -0.516},
      {"compound": "Cc1ccc2c(Cl)c(C(=O)Nc3cc(C)on3)sc2c1", "z-score": 0.0578},
      {"compound": "Cc1[nH]nc2c1C(c1ccsc1C)C(C#N)=C(N)O2", "note": "(stereo unspecified)", "z-score": -1.19},
      {"compound": "CCOC(=O)C1=C(C)NC(=O)NC1c1ccc2c(c1)OCO2", "note": "(stereo unspecified)", "z-score": -0.161},
      {"compound": "Cn1c(-c2ccccc2)cnc1SCC(=O)N1CCCc2ccccc21", "z-score": -0.333},
      {"compound": "Cn1c(/C=N/NC(=O)c2ccccc2Br)nc2ccccc21", "z-score": -0.216},
      {"compound": "O=C1C2CC=C(Cl)CC2C(=O)N1CCc1c[nH]c2ccccc12", "note": "(stereo unspecified)", "z-score": 0.173},
      {"compound": "CC(=O)c1ccc(Sc2ccc(C(C)=O)cc2)cc1", "z-score": -0.316},
      {"compound": "COc1cccc(-c2cc(C(=O)Nc3c(C)nn(Cc4ccccc4)c3C)no2)c1", "z-score": -0.515},
      {"compound": "O=[N+]([O-])c1ccccc1OCCCCN1CCCCC1", "z-score": 0.0447},
      {"compound": "c1ccc(N=P(c2nc3ccccc3o2)(N2CCOCC2)N2CCOCC2)cc1", "z-score": 0.113},
      {"compound": "CCOC(=O)N1CCN(C(=O)CSCC(=O)Nc2nc(-c3ccc(C)cc3)cs2)CC1", "z-score": -0.166},
      {"compound": "Cc1noc(NS(=O)(=O)c2ccc(NC(=O)CCC3CCCC3)cc2)c1C", "z-score": -0.241},
      {"compound": "O=C(Nc1ccc2c(c1)OCO2)Oc1ccccc1", "z-score": 0.125},
      {"compound": "CCn1c(N2CCN(CC(=O)c3ccc(OC)cc3)CC2)nc2ccccc21", "z-score": -0.715},
      {"compound": "N#Cc1cc(-c2ccccc2)c[nH]c1=O", "z-score": -0.286},
      {"compound": "O=C(COc1ccc(Cl)cc1)NCc1nnc(SCC(=O)N2CCCc3ccccc32)o1", "z-score": -0.183},
      {"compound": "C/C(=N\\OC(=O)Nc1ccc(Cl)cc1)c1ncc(C(F)(F)F)cc1N1CCOCC1", "z-score": 0.345},
      {"compound": "CC(NS(=O)(=O)c1ccc(OCC(=O)N2CCOCC2)c(Cl)c1)c1ccccc1", "note": "(stereo unspecified)", "z-score": 0.573},
      {"compound": "Cc1nc(-c2cccc(N)c2)cs1", "z-score": -0.00349},
      {"compound": "CCCc1nn(C)c(C(=O)Nc2ccc(Cl)cc2)c1Cl", "z-score": -0.344},
      {"compound": "Cn1cccc1/C=C1\\CCC/C(=C\\c2cccn2C)C1=O", "z-score": -1.22},
      {"compound": "Cc1ccc2nc(SCC(=O)Nc3cc(C(C)(C)C)nn3-c3ccccc3)[nH]c2c1", "z-score": -0.605},
      {"compound": "CC(C)NC(=S)N/N=C/c1ccc2c(c1)OCCO2", "z-score": 1.16},
      {"compound": "COCc1nnc(NS(=O)(=O)c2c(C)cc(C)cc2C)s1", "z-score": 0.0171},
      {"compound": "CCCN(CCC)CC(O)COc1ccc([N+](=O)[O-])cc1", "note": "(stereo unspecified)", "z-score": -0.273},
      {"compound": "Cc1ccc(NC(=O)COc2ccc(Br)cc2CO)cc1", "z-score": -0.489},
      {"compound": "O=C(NC1CCCC1)C1CCN(c2nccs2)CC1", "z-score": 0.382},
      {"compound": "Cc1nn(-c2cccc(C(=O)O)c2)c(C)c1Oc1ccccc1O", "z-score": -0.445},
      {"compound": "COc1ccccc1NC(=O)COC(=O)c1cnccn1", "z-score": -0.931},
      {"compound": "CCN1C(=O)/C(=C\\C=C2/C=CC=CN2CC)SC1=S", "z-score": -0.449},
      {"compound": "Cc1[nH]c(=S)[nH]c(=O)c1Cc1ccccc1", "z-score": 0.196},
      {"compound": "CN(C)S(=O)(=O)N1CCN(S(=O)(=O)c2ccccc2)CC1", "z-score": -0.177},
      {"compound": "O=c1c(C(c2c(O)nc3n(c2=O)CCS3)c2cccc3ccccc23)c(O)nc2n1CCS2", "z-score": 0.0224},
      {"compound": "COc1ccc(C)cc1NC(=O)C(OC(=O)CNC(=O)c1cccc(F)c1)c1ccccc1", "note": "(stereo unspecified)", "z-score": -0.268},
      {"compound": "Nc1cccc(NC(=O)c2cccs2)c1", "z-score": -0.248},
      {"compound": "Cc1cc(C(=O)COC(=O)CC2Sc3ccccc3NC2=O)c(C)n1-c1cccc(C(F)(F)F)c1", "note": "(stereo unspecified)", "z-score": 0.332},
      {"compound": "COc1ccccc1NC(=S)NCc1ccco1", "z-score": 0.152},
      {"compound": "CCCN(CCC)S(=O)(=O)c1ccc(C(=O)Nc2ccc(OCC(=O)N3CCOCC3)cc2)cc1", "z-score": -0.573},
      {"compound": "CCOC(=O)c1ccc(NC(=S)N(CCCN2CCCC(C)C2)Cc2ccco2)cc1", "note": "(stereo unspecified)", "z-score": 0.882},
      {"compound": "CCCS(=O)(=O)N1CCN(C(=O)c2cccs2)CC1", "z-score": -0.122},
      {"compound": "CCOc1ccc2nc(SCC)[nH]c2c1", "z-score": 1.32},
      {"compound": "CCc1nnc(NC(=O)CSc2nnc(C)n2Cc2ccccc2)s1", "z-score": -0.029},
      {"compound": "Cc1cc(N2C(=O)C(O)=C(C(=O)c3cccs3)C2c2ccccc2)no1", "note": "(stereo unspecified)", "z-score": -1.48},
      {"compound": "COC(=O)c1nc2cc3c(cc2c(C)c1C(=O)OC)OCO3", "z-score": -0.352},
      {"compound": "O=C(Nc1ccc(Nc2ccccc2)cc1)C(Cl)(Cl)Cl", "z-score": -0.286}
    ]}
  ]
}
